Reference: patent publication US20050070480A1, “Peptide arginals and methods for treating disseminated intravascular coagulation” (priority 2001, published 2005)

System: endotoxin-treated rats
Assay: Rat model for disseminated intravascular coagulation (fibrin deposition, platelet count, FDP)
[1] = endotoxin 10 mg/kg rats, 0.25 mg/kg/h i.v. bolus + infusion, 4 h, microthrombi index change vs saline group
[2] = endotoxin 10 mg/kg rats, 50 NIH U/kg/h i.v. bolus + infusion, 4 h

## CN[C@H](Cc1ccccc1)C(=O)N1CCC[C@H]1C(=O)N[C@H](C=O)CCCN=C(N)N [C, D-MePhe-Pro-Arg-H, reference compound]
rat, in vivo
  125I-fibrin deposition Kidney: 33%
  125I-fibrin deposition Liver: 30%
  Change in FDP: 1.94
  Change in platelet Count: 52%

## CCOC(=O)N[C@H](CC1CCCCCC1)C(=O)N1CCC[C@H]1C(=O)N[C@H](C=O)CCCNC(=N)N [Compound 1, ethoxycarbonyl-D-cycloheptylalanyl-L-prolyl-L-arginine aldehyde]
Endotoxin 10 mg/kg rats, 0.25 mg/kg/h i.v. bolus + infusion, 4 h
  Change in platelet Count: 48%
Endotoxin 10 mg/kg rats, 0.25 mg/kg/h i.v. bolus + infusion, 4 h, Aggristin precipitation assay
  Change in FDP: 1.66
[1]
  125I-fibrin deposition Kidney: 26%
  125I-fibrin deposition Liver: 13%

## heparin
[2]
  125I-fibrin deposition Kidney: 28%
  125I-fibrin deposition Liver: 22%
  Change in FDP: 2.37
  Change in platelet Count: 43%
